Measurements from the BET-seq Pho4 binding data (Le et al. 2018).
Some of the results follow. The energies were worked out here from pooled read counts, against the library average; single values are noisy.

Molecular target: T1, Pho4 (S. cerevisiae) (UniProt P07270)
T1 sequence: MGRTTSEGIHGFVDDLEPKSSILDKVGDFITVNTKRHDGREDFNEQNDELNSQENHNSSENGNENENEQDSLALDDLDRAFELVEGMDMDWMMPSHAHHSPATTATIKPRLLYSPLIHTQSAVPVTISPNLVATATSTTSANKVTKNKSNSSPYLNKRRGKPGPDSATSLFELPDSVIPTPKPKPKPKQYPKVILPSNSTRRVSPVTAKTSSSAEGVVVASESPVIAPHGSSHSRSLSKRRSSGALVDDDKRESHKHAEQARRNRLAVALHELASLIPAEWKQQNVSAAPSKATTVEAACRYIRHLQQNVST
Assay: relative binding free energy (BET-seq); higher = weaker binding
Details: reference: library average

Row | Sequence | relative binding free energy [kcal/mol]
1 | CGTTTCACGTGTAGTA | 0.27
2 | GAGTGCACGTGAGGGT | 0.3
3 | GATGTCACGTGGTGTA | 0.12
4 | TGGTACACGTGTCGGC | 0.14
5 | TGGTACACGTGAATGG | 0.11
6 | GATGTCACGTGCTGCT | 0.14
7 | AAGTGCACGTGGGCTG | -0.14
8 | AGTGTCACGTGCGAGA | 0.02
9 | GGGGCCACGTGTGGGG | 0.05
10 | TTGAGCACGTGTGGCT | -0.12
11 | CTAGGCACGTGGGGGC | -0.2
12 | TGGGGCACGTGATTAA | -0.06
13 | GCAGTCACGTGTGGGA | 0.12
14 | GGTGGCACGTGAATAG | 0.12
15 | GTTGGCACGTGAGGTC | 0.29
16 | CGTTGCACGTGGTTGC | -0.15
17 | ACTGGCACGTGGAAGG | -0.05
18 | CGGTGCACGTGATTGC | 0.05
19 | CTTTTCACGTGTTGGA | 0.18
20 | TAAGACACGTGGGGCG | -0.2
21 | GTCGGCACGTGGTGGT | -0.09
22 | TGGACCACGTGTGGTA | 0.03
23 | CTGTTCACGTGCGGGA | 0.25

Row | Sequence | relative binding free energy [kcal/mol]
24 | ATGTGCACGTGTGCTG | -0.04
25 | CGAGTCACGTGTCGTG | 0.17
26 | GATGACACGTGTGGTT | 0.24
27 | ATGAGCACGTGTGTCT | -0.06
28 | AATGCCACGTGTGTGT | -0.04
29 | GGGGGCACGTGCAGGG | -0.15
30 | TCGTACACGTGTGGGA | 0.09
31 | AATCTCACGTGTATGT | 0.13
32 | TGTGCCACGTGCAGTG | -0.07
33 | AGGGACACGTGTATGG | 0.14
34 | TTTTACACGTGCAATG | 0.15
35 | AGAGTCACGTGTGTTT | 0.23
36 | AGCCTCACGTGAGGTG | 0.37
37 | TTTTTCACGTGATGTG | 0.35
38 | TTGTTCACGTGAAGTA | 0.47
39 | AAATACACGTGGGGAG | -0.05
40 | TTGGTCACGTGGGCAT | 0.11
41 | CAATTCACGTGGTTTA | 0.24
42 | CTGTTCACGTGGATTT | 0.36
43 | GGTTACACGTGAACGG | 0.31
44 | ATGTGCACGTGTAATA | -0.11
45 | GCTTTCACGTGTGAGT | 0.34
46 | TGAGACACGTGGTGGT | 0.01

Row | Sequence | relative binding free energy [kcal/mol]
47 | CGGTGCACGTGTGATG | -0.04
48 | AATAACACGTGATGGG | 0.2
49 | TGAATCACGTGTTCTT | 0.19
50 | ATGTACACGTGGGAGA | -0.1
51 | GATAGCACGTGAGGGA | 0.33
52 | GGATGCACGTGGGTTA | -0.06
53 | GGTGGCACGTGTTGGA | 0.11
54 | TATCTCACGTGGATTT | 0.4
55 | CTGTACACGTGATGGT | 0.15
56 | GGTCACACGTGGTATA | 0.03
57 | TTATGCACGTGGCTGG | -0.18
58 | TTGGTCACGTGAGCTC | 0.33
59 | TGTTGCACGTGAGCGA | 0.14
60 | GTTGGCACGTGATTTT | 0.13
61 | GAAGGCACGTGGGAGG | -0.26
62 | GGGGTCACGTGTAAAA | 0.24
63 | GACGGCACGTGTGTAT | 0.03
64 | ATTTGCACGTGCAGGG | -0.02
65 | TGATTCACGTGAAGGA | 0.42
66 | ATAGGCACGTGGTGCT | -0.18
67 | GTTATCACGTGTAAAG | 0.29
68 | TTTTTCACGTGATTGC | 0.42
69 | GATTGCACGTGTGGAT | 0.25

Row | Sequence | relative binding free energy [kcal/mol]
70 | ATGGTCACGTGTCGGC | 0.1
71 | TCGGGCACGTGTTCTG | -0.06
72 | CGGGGCACGTGGAGTT | -0.12
73 | GGATTCACGTGCTATT | 0.24
74 | GGATTCACGTGGATGC | 0.49
75 | TTGAACACGTGTCGGT | 0.08
76 | GGACGCACGTGGGGGT | -0.22
77 | CATTTCACGTGGTAAG | 0.21
78 | AGGGACACGTGAGTTG | 0.37
79 | GAGTCCACGTGGGTAT | -0.04
80 | CTTTACACGTGTTGGT | 0.12
81 | CTTGGCACGTGGGTTG | -0.3
82 | TGAGACACGTGAAGTG | 0.24
83 | TCAATCACGTGTAGGT | 0.07
84 | GGGGGCACGTGAGAAC | 0.12
85 | GATTTCACGTGGGAAT | 0.38
86 | AGACACACGTGTTGTG | 0.03
87 | TAATGCACGTGGCGAG | -0.09
88 | GAGCGCACGTGTTATG | 0.08
89 | CAGTTCACGTGGTCGG | 0.19
90 | AGTTACACGTGCTGAT | 0.05
91 | TGATGCACGTGCTGGA | 0.04
92 | TAGCTCACGTGGTTTA | 0.15

Row | Sequence | relative binding free energy [kcal/mol]
93 | CGAAGCACGTGTTAGG | -0.03
94 | AGTTTCACGTGTTAAA | 0.11
95 | CAGGTCACGTGTTGTT | 0.14
96 | ATAATCACGTGGTATG | 0.12
97 | TTGCACACGTGGGGTC | -0.13
98 | TGCGTCACGTGGAAAG | 0.2
99 | AACTGCACGTGTGGTA | 0.03
100 | CTTTTCACGTGTAATT | 0.22
101 | GGATGCACGTGAGCGC | 0.36
102 | ATTGGCACGTGTATCT | 0.01
103 | TGATTCACGTGGGAAG | 0.19
104 | GTAGTCACGTGTCGAG | 0.32
105 | TAAGTCACGTGGGCGT | 0.1
106 | CATTGCACGTGTATTT | 0.02
107 | TATGGCACGTGAGGTC | 0.18
108 | GTCAACACGTGAGGGT | 0.17
109 | TCACGCACGTGTTGTT | -0.03
110 | CTGGACACGTGGTGGT | 0.01
111 | GGTGACACGTGGCGTG | -0.09
112 | ATTGTCACGTGGATTC | 0.15
113 | GTTGTCACGTGTTCGT | 0.2
114 | TTAAGCACGTGGGGTG | -0.24
115 | TCGATCACGTGTCTGT | 0.26
